Laboratory results: US4076815A, “Quinoxaline compound and composition, process for preparing compound, and method of combatting cholera therewith” (Istituto Chemioterapico Italiano, S.p.A., priority 1977, dated 1978)

Legend:
[1] = Toxicity of CO-2 in the same manner as for CO-1; details: same manner as described for CO-1
[2] = Teratogenetic study, male and female mice and rats (summary); details: either group
[3] = Subacute toxicity in the mouse, gastric gavage 15 days; details: for Dead/Treated: 15 days; for SGPT: 24 hrs. after last dose
Teratogenetic study, rat = details: 250 mg/kg/day oral
[4] = Acute toxicity in the rat
[5] = Teratogenetic study, mouse; details: 250 mg/kg/day oral
[6] = Acute toxicity in the rabbit by esophageal administration; type: in vivo
[7] = Chronic toxicity in the female mouse, gastric gavage 18 weeks; details: for Body Weight (m ± SE) Termination: 18 weeks; for Fresh Organ-to-Body Weight Ratio, Kidneys / Fresh Organ-to-Body Weight Ratio, Liver: m ± SE, 4 animals; for SGOT: mean of 6 animals, 24 hours after last dose
[8] = Subacute toxicity in female rats, gastric gavage 21 days; details: 2 g/kg/day, 5 animals, HS
[9] = Acute toxicity in female mice; type: in vivo, mouse

SMILES: Cc1cc(C=Cc2c[n+]([O-])c3ccccc3[n+]2[O-])nc(N)n1 [CO-2, 2-[2-(2-amino-6-methyl-4-pyrimidinyl)ethenyl]-quinoxaline 1,4-dioxide]
- toxicity compared with CO-1 [1]: Comparable results are obtained

SMILES: Nc1nccc(C=Cc2c[n+]([O-])c3ccccc3[n+]2[O-])n1 [CO-1, 2-[2-(2-amino-4-pyrimidinyl)ethenyl]-quinoxaline 1,4-dioxide]
- malformations [2]: No malformations in either group were observed
- Dead/Treated ([3]; 500 mg/kg/day oral): 0/10
- Dead/Treated ([3]; 1 g/kg/day in H2O): 2/12
- Dead/Treated ([3]; 1 g/kg/day in adraganth gum): 3/12
- SGPT ([3]; CO-1 in adraganth gum): 10 Units/ml
- SGPT ([3]; CO-1 in water): 9 Units/ml
- No. of Fetuses with Malformations (Teratogenetic study, rat): 0
- Pregnant/Treated Animals (Teratogenetic study, rat): 7/10
- Dead/Treated within 7 days (cumulative, regardless of sex) ([4]; esophageal, 4000 mg/kg): 0/16
- Dead/Treated within 7 days (cumulative, regardless of sex) ([4]; intraperitoneal, 500 mg/kg): 4/16
- No. of Fetuses with Malformations [5]: 0
- Pregnant/Treated Animals ([5]; result might be casual, should be repeated): 3/10
- Body Weight Start ([6]; 500 mg/kg, baseline): 2000 to 2100 g
- dead out of treated animals within 4 days ([6]; footnote to 2000 mg/kg): two dead out of seven treated animals
- Body Weight (m ± SE) Termination ([7]; 250 mg/kg/day): 26.7 ± 0.7 g
- Fresh Organ-to-Body Weight Ratio, Kidneys ([7]; 250 mg/kg/day): 0.87 ± 0.08
- Fresh Organ-to-Body Weight Ratio, Liver ([7]; 250 mg/kg/day): 4.57 ± 0.25
- SGOT ([7]; 250 mg/kg/day): 118 Units/ml
- Body Weight (m ± SE) Start ([7]; 250 mg/kg/day, baseline): 27.3 ± 0.5 g
- Body Weight (m ± SE) Termination ([7]; 500 mg/kg/day): 30.0 ± 0.7 g
- Fresh Organ-to-Body Weight Ratio, Kidneys ([7]; 500 mg/kg/day): 1.07 ± 0.04
- Fresh Organ-to-Body Weight Ratio, Liver ([7]; 500 mg/kg/day): 4.66 ± 0.91
- SGOT ([7]; 500 mg/kg/day): 159 Units/ml
- Average Percent Weight of Fresh Organs (m ± SE), Liver [8]: 4.54 ± 0.10%
- Dead/Treated Animals after 7 days ([9]; endoperitoneal, 250 mg/kg): 0/18
- Dead/Treated Animals after 7 days ([9]; endoperitoneal, 500 mg/kg): 6/12
- Dead/Treated Animals after 2 days ([9]; endoperitoneal, 1000 mg/kg): 6/6
- Dead/Treated Animals after 7 days ([9]; endoperitoneal, 1000 mg/kg): 6/6
- Dead/Treated Animals after 1 day ([9]; endoperitoneal, 2000 mg/kg): 6/6
- Dead/Treated Animals after 7 days ([9]; endoperitoneal, 2000 mg/kg): 6/6
- Dead/Treated Animals after 7 days ([9]; esophageal, 1000 mg/kg): 0/12
- Dead/Treated Animals after 7 days ([9]; esophageal, 2000 mg/kg): 0/12
- Dead/Treated Animals after 4 days ([9]; esophageal, 4000 mg/kg): 1/12
- Dead/Treated Animals after 7 days ([9]; esophageal, 4000 mg/kg): 1/12
